Source: PubChem BioAssay AID1345083 (National Center for Advancing Translational Sciences (NCATS), 2018)
Out of some 94,000 compounds screened, about 6,200 (6.6%) were called active. Inconclusive results, whose numbers are uncertain, are shown with a selection of clear calls. Calls follow the shape of the dose curve; as a rule, active = well fitted inhibition curve with a large enough effect; inconclusive = small, poorly fitted or top-dose-only effect; inactive = flat fitted curve, though single readings scatter. Potencies of inconclusive entries are doubtful fits and often do not repeat.

Assay: Cytotoxic Profiling in HEK 293 Cell Line of Diverse Libraries Using Quantitative High-Throughput Screening; also: nearly all actives have a fitted effect of over 60% in size
Details: HEK 293 viability, ATP luminescence (CellTiter-Glo), 48-72 h; activity change, negative = cytotoxicity: at 115 µM (top of the series) unless noted; series mostly up to 115 µM
How it was run: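 ATP-coupled CellTiter-Glo luminescence served as viability read-out, recorded 10 min after reagent addition at room temperature. HEK 293 cells, 250 cells/well, had been incubated with pintool-transferred compound for 48 or 72 hr at 37 degree Celsius.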
% is scaled to controls: 0 for no effect and ±100 for the full control effect; potency is read from the fitted curve at half-maximal effect; tags tell the direction and shape of the fitted curve.

SMILES | Potency | activity change, negative = cytotoxicity
CC(C)(Oc1nn(Cc2cccc(Cl)c2)c2ccccc12)C(=O)NCCCn1ccnc1 | active: 50.1 µM | 
O=C(c1cccc(F)c1)N1CCCC(n2cc(-c3nc(-c4ccccc4)no3)nn2)C1 (centres undefined) | inconclusive: 39.8 µM [inhibitor, partial curve, poor fit] | 
O=C(c1nnc(CN2CCN(c3ccccn3)CC2)n1Cc1ccccc1)N1CCC[C@@H]1c1ccc(Br)cc1 | active: 44.7 µM | 
CC1=NS(=O)(=O)N(C)C=C1C(=O)OCc1nc(-c2ccc(F)cc2)no1 | inconclusive: 44.7 µM [inhibitor, partial curve] | 
COCCN1C(=O)c2ccccc2C(C(=O)N2CCC(C)CC2)C12CCCC2 (centres undefined) |  | inactive: -29.5%
CC1(COc2ccccc2)COc2ccc(C(=O)N3CCOCC3c3ccncc3)cc2N1 (centres undefined) | inconclusive: 56.2 µM [inhibitor, partial curve, poor fit] | 
Cc1cccc(NC(=O)Cn2c(-c3ccc(Cl)cc3)nc(C)c(CCO)c2=O)c1C |  | inactive: -17%
NS(=O)(=O)c1ccc(CCNC(=O)CCC2CCN(C(=O)c3ccccc3)CC2)cc1 |  | inactive: -15.6%
COCCOCc1nc(C2CCN(C(=O)Nc3ccccc3)CC2)no1 |  | inactive: -2%
CN(CC1CCN(CCc2ccc(F)cc2)CC1)C1CCN(Cc2cccnc2)CC1 | inconclusive: 22.4 µM [inhibitor, full curve, poor fit] | 
OC(CCc1ccccc1)C1CCN(Cc2nc(-c3ccccn3)no2)CC1 (centres undefined) |  | inactive: -13.5%
COc1ccc(-c2cnc3[nH]cc(CC(N)=O)c3c2)cc1OC | inconclusive: 44.7 µM [inhibitor, full curve] | 
COC(=O)[C@@H]1Cc2nc[nH]c2CN1C(C)C | inconclusive: 112 µM [inhibitor, partial curve] | 
COCCCNC(=O)C1CCN(C(=O)c2nnn3c2COC(c2ccc(C)cc2)C3)CC1 (centres undefined) |  | inactive: -4.51%
CCCN(CC1CCOC1)C(=O)Nc1ccc2c(c1)OCCO2 (centres undefined) |  | inactive: -5.37%
COc1ccc(NC(=O)C2CN(S(=O)(=O)c3cccnc3)CC23CCCCC3)cc1F (centres undefined) | inconclusive: 56.2 µM [inhibitor, partial curve, poor fit] | 
CCc1nc2c(c(-c3ccc(O)cc3)n1)CCN(Cc1cncs1)CC2 |  | inactive: 1.36%
CCOc1cccc(-c2noc(-c3nnn4c3COC(c3ccc(F)cc3)C4)n2)c1 (centres undefined) | inconclusive: 44.7 µM [inhibitor, partial curve, poor fit] | 
CN1CCN(C(=O)C[C@@H]2CCNC[C@@H]2Cc2cc(-c3ccc(C(C)(C)C)cc3)on2)CC1 | inconclusive: 35.5 µM [inhibitor, full curve, poor fit] | 
